Reference: the supplement of paper PMC10126150
Sequences with one replicate were seen in a single cluster, so their values are uncertain.

System: ATP
Assay: switch fluorescence ratio, 500 uM ATP over buffer (Cy3 cluster intensity, sum of 5 cycles each) (fold (ratio)); higher = stronger signal-on switching upon ATP binding; sequences stand for … in TCGTCGGCAGCGTCAGATGTGTATAAGAGACAGTTTTTTTTTTTTTTTTTTTTTTTTT…TC
Conditions: aptamer strand: ATP DNA aptamer (quencher-CACCTGGGGGAGTATTGCGGAGGAAGG + anchor), 100 nM annealed; ATP concentration: 500 uM; one replicate
Summary of the method: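 Exposure to 500 uM ATP lasted 15 min at 22 °C before imaging, and a selection-buffer image was taken beforehand, for Cy3-labelled switching-strand clusters on a modified Illumina MiSeq flow-cell annealed to 100 nM quencher-labelled ATP aptamer. Five buffer/ATP cycles were run with NaOH stripping and re-annealing between them. The fluorescence ratio per cluster is summed target-cycle over summed buffer-cycle Cy3 intensity, averaged per switch-domain sequence. Clusters outside 100-1000 RFU were excluded.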

Q: Which switch fluorescence ratio does the source give for ATTCGTGCGA here?
A: Its switch fluorescence ratio is 1.04.

Q: With TCTGAGGATG as the sequence, how does the switch fluorescence ratio read?
A: Its switch fluorescence ratio is 1.04.

Q: Which switch fluorescence ratio does the source give for CCAGCGCG here?
A: Its switch fluorescence ratio is 1.11.

Q: How did the switch fluorescence ratio turn out when CGATAATCGG was run?
A: Its switch fluorescence ratio is 0.987.

Q: Which switch fluorescence ratio does the source give for AATGCTTAAA here?
A: Its switch fluorescence ratio is 1.02.

Q: For TTTCCGTCCC, which switch fluorescence ratio is on record?
A: The switch fluorescence ratio was 1.13.

Q: With GCTAACCAGC as the sequence, how does the switch fluorescence ratio read?
A: Its switch fluorescence ratio is 0.985.

Q: How did the switch fluorescence ratio turn out when ATAACAGAG was run?
A: The switch fluorescence ratio was 0.958.

Q: AATGTCCCAG was tested. Which switch fluorescence ratio did it give?
A: The switch fluorescence ratio was 0.994.

Q: Which switch fluorescence ratio does the source give for ACTAACTGCG here?
A: Its switch fluorescence ratio is 1.09.

Q: GTTAATATGT was tested. Which switch fluorescence ratio did it give?
A: Its switch fluorescence ratio is 0.955.

Q: With CTGCCGTTCT as the sequence, how does the switch fluorescence ratio read?
A: The switch fluorescence ratio was 1.09.

Q: Which switch fluorescence ratio does the source give for TTGACGTCGC here?
A: The switch fluorescence ratio was 1.11.

Q: For TCTGCTGAGG, which switch fluorescence ratio is on record?
A: The switch fluorescence ratio was 1.01.

Q: Which switch fluorescence ratio does the source give for GACGCCTCGC here?
A: The switch fluorescence ratio was 1.15.

Q: How did the switch fluorescence ratio turn out when AATACGTGTT was run?
A: Its switch fluorescence ratio is 0.994.

Q: How did the switch fluorescence ratio turn out when TATTCCTTTA was run?
A: Its switch fluorescence ratio is 1.02.

Q: For GCGTTAGTGA, which switch fluorescence ratio is on record?
A: The switch fluorescence ratio was 1.

Q: CGTGTAAATG was tested. Which switch fluorescence ratio did it give?
A: Its switch fluorescence ratio is 1.05.

Q: For CGTAAAGGGT, which switch fluorescence ratio is on record?
A: Its switch fluorescence ratio is 0.985.

Q: For TAGCCAGATC, which switch fluorescence ratio is on record?
A: The switch fluorescence ratio was 1.01.

Q: With AAGAAGTTGA as the sequence, how does the switch fluorescence ratio read?
A: The switch fluorescence ratio was 1.02.

Q: With TATCAGTTGC as the sequence, how does the switch fluorescence ratio read?
A: The switch fluorescence ratio was 0.98.

Q: GGAAATATAA was tested. Which switch fluorescence ratio did it give?
A: Its switch fluorescence ratio is 1.01.

Q: For CCAGATCGGA, which switch fluorescence ratio is on record?
A: The switch fluorescence ratio was 1.

Q: With GGATACGTGG as the sequence, how does the switch fluorescence ratio read?
A: Its switch fluorescence ratio is 0.987.

Q: Which switch fluorescence ratio does the source give for TAATTCACAC here?
A: Its switch fluorescence ratio is 1.04.

Q: For AACATTTGGG, which switch fluorescence ratio is on record?
A: Its switch fluorescence ratio is 0.993.

Q: Which switch fluorescence ratio does the source give for TGCCGCGGCA here?
A: Its switch fluorescence ratio is 1.04.

Q: For TTTTCCGCAT, which switch fluorescence ratio is on record?
A: The switch fluorescence ratio was 4.61.

Q: CGAGCAGCTG was tested. Which switch fluorescence ratio did it give?
A: The switch fluorescence ratio was 1.09.

Q: How did the switch fluorescence ratio turn out when TAACAAACGG was run?
A: The switch fluorescence ratio was 1.22.

Q: How did the switch fluorescence ratio turn out when ACCGGCGTCT was run?
A: The switch fluorescence ratio was 1.28.

Q: With TGCCACTGTT as the sequence, how does the switch fluorescence ratio read?
A: The switch fluorescence ratio was 0.974.

Q: With GACGGCCAGG as the sequence, how does the switch fluorescence ratio read?
A: Its switch fluorescence ratio is 1.07.

Q: For GAAACTGCTT, which switch fluorescence ratio is on record?
A: Its switch fluorescence ratio is 0.933.

Q: For GTTGTTTGTG, which switch fluorescence ratio is on record?
A: Its switch fluorescence ratio is 0.96.

Q: For TTAAGTCAG, which switch fluorescence ratio is on record?
A: The switch fluorescence ratio was 1.02.

Q: Which switch fluorescence ratio does the source give for TTTTAGAGCA here?
A: The switch fluorescence ratio was 1.01.

Q: TCTTCTACGA was tested. Which switch fluorescence ratio did it give?
A: The switch fluorescence ratio was 1.04.

Q: For TGAAGTAGTT, which switch fluorescence ratio is on record?
A: Its switch fluorescence ratio is 1.02.

Q: Which switch fluorescence ratio does the source give for TTTACGGCCG here?
A: Its switch fluorescence ratio is 1.03.

Q: How did the switch fluorescence ratio turn out when GCAATAGCTG was run?
A: Its switch fluorescence ratio is 1.27.

Q: How did the switch fluorescence ratio turn out when CTGACAGGTG was run?
A: Its switch fluorescence ratio is 2.09.

Q: For GATCGTGTCT, which switch fluorescence ratio is on record?
A: Its switch fluorescence ratio is 1.02.

Q: TCTGACTATA was tested. Which switch fluorescence ratio did it give?
A: Its switch fluorescence ratio is 1.08.

Q: For TGCACGTATG, which switch fluorescence ratio is on record?
A: The switch fluorescence ratio was 1.04.

Q: With CGGCCGAACC as the sequence, how does the switch fluorescence ratio read?
A: The switch fluorescence ratio was 1.01.

Q: Which switch fluorescence ratio does the source give for GCACAAGAGA here?
A: Its switch fluorescence ratio is 1.03.

Q: With GATCTGGATC as the sequence, how does the switch fluorescence ratio read?
A: The switch fluorescence ratio was 1.01.

Q: How did the switch fluorescence ratio turn out when TACCATTTGG was run?
A: The switch fluorescence ratio was 1.02.

Q: How did the switch fluorescence ratio turn out when TGAAGCGGAG was run?
A: Its switch fluorescence ratio is 0.985.

Q: For AACCGAACAT, which switch fluorescence ratio is on record?
A: Its switch fluorescence ratio is 1.17.

Q: CAGTAGAGCC was tested. Which switch fluorescence ratio did it give?
A: Its switch fluorescence ratio is 1.

Q: How did the switch fluorescence ratio turn out when ATTCCGGGCA was run?
A: Its switch fluorescence ratio is 1.5.

Q: With TTTACCCAT as the sequence, how does the switch fluorescence ratio read?
A: The switch fluorescence ratio was 1.05.

Q: For GTTTTCACCA, which switch fluorescence ratio is on record?
A: Its switch fluorescence ratio is 1.01.

Q: Which switch fluorescence ratio does the source give for TGGGGAAACA here?
A: The switch fluorescence ratio was 1.02.

Q: With TAGGTCGCCC as the sequence, how does the switch fluorescence ratio read?
A: Its switch fluorescence ratio is 0.997.

Q: How did the switch fluorescence ratio turn out when AATATTAAAG was run?
A: Its switch fluorescence ratio is 0.994.

Q: How did the switch fluorescence ratio turn out when CTGAAGGCGG was run?
A: The switch fluorescence ratio was 1.03.

Q: Which switch fluorescence ratio does the source give for GAGCGAGTGA here?
A: The switch fluorescence ratio was 1.02.

Q: Which switch fluorescence ratio does the source give for TATTCCTCAA here?
A: The switch fluorescence ratio was 1.26.

Q: With TCTTGTACTT as the sequence, how does the switch fluorescence ratio read?
A: Its switch fluorescence ratio is 1.17.

Q: How did the switch fluorescence ratio turn out when GTTATAACCC was run?
A: Its switch fluorescence ratio is 0.997.

Q: ACTGAACCAT was tested. Which switch fluorescence ratio did it give?
A: Its switch fluorescence ratio is 1.19.

Q: How did the switch fluorescence ratio turn out when CGGTTAATT was run?
A: The switch fluorescence ratio was 0.959.

Q: With ATTTCTTAAC as the sequence, how does the switch fluorescence ratio read?
A: The switch fluorescence ratio was 0.982.

Q: TGATGGTAGC was tested. Which switch fluorescence ratio did it give?
A: The switch fluorescence ratio was 0.98.

Q: Which switch fluorescence ratio does the source give for TTATGCATTA here?
A: Its switch fluorescence ratio is 1.

Q: ATCTTTCGGT was tested. Which switch fluorescence ratio did it give?
A: The switch fluorescence ratio was 1.08.

Q: How did the switch fluorescence ratio turn out when CTAAGTTTAT was run?
A: The switch fluorescence ratio was 0.96.

Q: How did the switch fluorescence ratio turn out when AAGGTTCCCA was run?
A: Its switch fluorescence ratio is 1.03.

Q: With GGAACAGCAA as the sequence, how does the switch fluorescence ratio read?
A: The switch fluorescence ratio was 1.83.

Q: With ATCAGAAATT as the sequence, how does the switch fluorescence ratio read?
A: Its switch fluorescence ratio is 0.976.

Q: How did the switch fluorescence ratio turn out when CATGTGCTTT was run?
A: The switch fluorescence ratio was 0.993.

Q: Which switch fluorescence ratio does the source give for CTCAATGTGA here?
A: The switch fluorescence ratio was 1.02.

Q: Which switch fluorescence ratio does the source give for TGGGTGTTG here?
A: The switch fluorescence ratio was 0.97.

Q: How did the switch fluorescence ratio turn out when TTTAAAGGA was run?
A: The switch fluorescence ratio was 0.974.

Q: Which switch fluorescence ratio does the source give for TTTGTCCCGC here?
A: Its switch fluorescence ratio is 1.06.

Q: With GTTCTTATTT as the sequence, how does the switch fluorescence ratio read?
A: The switch fluorescence ratio was 0.998.

Q: For GCGAGCGC, which switch fluorescence ratio is on record?
A: The switch fluorescence ratio was 0.983.

Q: For TCTCCAACAG, which switch fluorescence ratio is on record?
A: Its switch fluorescence ratio is 1.38.

Q: CTCGTTGGGA was tested. Which switch fluorescence ratio did it give?
A: Its switch fluorescence ratio is 0.947.

Q: With GGAGGCAGG as the sequence, how does the switch fluorescence ratio read?
A: The switch fluorescence ratio was 1.09.

Q: How did the switch fluorescence ratio turn out when CCCTAGGCCC was run?
A: The switch fluorescence ratio was 1.03.

Q: With TCGTAGTGAG as the sequence, how does the switch fluorescence ratio read?
A: The switch fluorescence ratio was 0.995.

Q: With ACTAGAAAAG as the sequence, how does the switch fluorescence ratio read?
A: Its switch fluorescence ratio is 1.

Q: Which switch fluorescence ratio does the source give for CCTATACGAA here?
A: Its switch fluorescence ratio is 1.09.

Q: For CCTTTTCACG, which switch fluorescence ratio is on record?
A: Its switch fluorescence ratio is 1.04.

Q: Which switch fluorescence ratio does the source give for AAGATCAGAA here?
A: The switch fluorescence ratio was 1.01.

Q: How did the switch fluorescence ratio turn out when CTTTCATGGT was run?
A: The switch fluorescence ratio was 0.971.

Q: For GCAATGTAAG, which switch fluorescence ratio is on record?
A: The switch fluorescence ratio was 0.994.

Q: CACTTCTGCC was tested. Which switch fluorescence ratio did it give?
A: Its switch fluorescence ratio is 0.996.

Q: GGAGGGGGG was tested. Which switch fluorescence ratio did it give?
A: The switch fluorescence ratio was 0.976.

Q: With CTAATCATTA as the sequence, how does the switch fluorescence ratio read?
A: Its switch fluorescence ratio is 0.975.

Q: For AAAATGAGCG, which switch fluorescence ratio is on record?
A: Its switch fluorescence ratio is 1.06.

Q: GTTTAATTGT was tested. Which switch fluorescence ratio did it give?
A: The switch fluorescence ratio was 1.01.

Q: How did the switch fluorescence ratio turn out when ATCCAGTGGC was run?
A: The switch fluorescence ratio was 1.1.

Q: For AGTTGTGGCA, which switch fluorescence ratio is on record?
A: Its switch fluorescence ratio is 0.977.

Q: With AGAGGAATAG as the sequence, how does the switch fluorescence ratio read?
A: Its switch fluorescence ratio is 1.15.
